Measurements reported in PubChem BioAssay AID686970 (National Center for Advancing Translational Sciences (NCATS), 2013).
Screen size: about 360,000 compounds; about 6,000 (1.7%) were called active. Inconclusive results, whose numbers are uncertain, are shown with a selection of clear calls. Calls come from the whole dose curve; as a rule, active = well fitted cell-killing curve with a large enough effect; inconclusive = small, poorly fitted or top-dose-only effect, or effect the other way; inactive = flat fitted curve, though single readings scatter. Potencies of inconclusive entries are left out as doubtful fits.

Assay: qHTS for induction of synthetic lethality in tumor cells producing 2HG: qHTS for the HT-1080-NT fibrosarcoma cell line;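 note: NT is the 2HG producing partner of a matched IDH1 knockdown line; nearly all actives have a fitted effect of over 55% in size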;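 for activity, negative = less viability: 0% = DMSO-treated cells and -100% = media-only wells without cells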
Settings: HT-1080-NT fibrosarcoma viability, CellTiter-Glo ATP luminescence, 48 h; activity, negative = less viability: at 46.1 µM (top of the series) unless noted
Procedure, shortened: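 A 48-hour cytotoxicity screen used HT-1080-NT cells plated 2 hours before compound delivery. ATP-based CellTiter-Glo luminescence measured viability, normalized to DMSO and no-cell controls.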
Potency is the fitted concentration of half-maximal effect; tags give direction and shape of the fitted curve.

Compound | Potency | activity, negative = less viability
CC(C)(C)n1nnnc1C(c1cccs1)N(Cc1cccnc1)Cc1ccccc1Cl (stereo not given) | inconclusive [cytotoxic, single point] | –
Cc1ccccc1NC(=O)c1ccc(CN2CCC(Cc3ccccc3)CC2)cc1 | active: 23.1 µM | –
CC(C)Cn1c(N)c(C(=O)COC(=O)C2CC(=O)N(Cc3ccccc3Cl)C2)c(=O)n(C)c1=O (stereo not given) | – | inconclusive: -30.4% [cytotoxic]
CC(C)(C)c1nc(N2CCN(C(=O)c3ccco3)CC2)c2nnn(Cc3ccccc3)c2n1 | inconclusive [cytotoxic, single point] | –
COc1cc2[nH]c(=O)c(C(=O)NCc3ccccc3Cl)c(O)c2cc1OC | – | inactive: 18.7%
CC1(C(=O)NC2CCCC2)CCC(=O)N1CCOc1ccccc1 (stereo not given) | – | inactive: 22.1%
O=C(C[C@H]1CC[C@@H]2[C@H](COC[C@H](O)CN2Cc2nccs2)O1)NCc1ccccc1Cl | – | inactive: 15.7%
Cc1cc(N=Cc2c(O)ccc3ccccc23)no1 | inconclusive [cytotoxic, single point] | –
Cc1ccc(C(=O)Nc2sc3c(c2C(=O)O)CCCC3)o1 | inconclusive [cytotoxic, single point] | –
CC(=O)c1ccc(-c2ccc(C(=O)NC3CCCCCC3)o2)cc1 | – | inconclusive: 31%
N#C/C(N=Nc1ccccc1O)=N\Nc1ccccc1O | active: 20.6 µM | –
COc1cc(C(=O)Nc2nc(-c3cccs3)cs2)cc(OC)c1OC | inconclusive [cytotoxic, single point] | –
CCOc1ccc(C(=O)Nc2ccc(S(=O)(=O)N3C[C@@H]4C[C@@H](C3)c3cccc(=O)n3C4)cc2)cc1 | inconclusive [cytotoxic, single point] | –
CCOC(=O)CSC1=C(C#N)C(c2ccc3c(c2)OCO3)CC(=O)N1 (stereo not given) | active: 16.4 µM | –
Cc1nc2c(-c3ccc(Cl)cc3)c(C)[nH]n2c(=O)c1Cc1ccccc1 | inconclusive [cytotoxic, full curve, poor fit] | –
O=C(c1ccc(Br)cc1)N1CCCC(c2nc(-c3cccs3)no2)C1 (stereo not given) | inconclusive [cytotoxic, single point] | –
CC1=C(CC(=O)c2ccc(Cl)cc2)C(=O)c2ccccc2C1=O | inconclusive [cytotoxic, single point] | –
Cc1nn(C)cc1C(C(=O)NC1CCCCC1)N(C(=O)Cc1cccs1)c1ccc(C(C)C)cc1 (stereo not given) | inconclusive [cytotoxic, partial curve] | –
Cc1nc2c(-c3ccc(F)cc3)cnn2c(N)c1-c1ccccc1 | inconclusive [cytotoxic, single point] | –
CCN(CC)c1ccc(/C=N/NC(=O)c2ccoc2C)cc1 | inconclusive [cytotoxic, single point] | –
CN1C(=O)C2ON(c3ccccc3)C(c3cccs3)C2C1=O (stereo not given) | – | inactive: 10.7%
O=C(Nc1cccc(Cl)c1)Nc1ccccc1C(=O)NCc1ccco1 | – | inactive: -22.2%
COC(=O)N1CCCCC1c1cc(C(=O)N2CCOCC2)no1 (stereo not given) | – | inactive: 0.954%
CCC(=O)Nc1ccc(NC(=S)NC(=O)/C=C/c2ccco2)cc1 | inconclusive [cytotoxic, single point] | –

Compound | Potency | activity, negative = less viability
Cc1cc(C)cc(N=Cc2c(O)c3ccccc3oc2=O)c1 | – | inconclusive: -13.1% [cytotoxic]
c1ccc2c(c1)-c1cccc3cncc-2c13 | – | inactive: 16.1%
CC(=O)C1=C(O)C(=O)N(c2ccc(Br)cn2)C1c1ccccc1[N+](=O)[O-] (stereo not given) | inconclusive [cytotoxic, partial curve] | –
Cc1cc2cc(CN(CC3CCCO3)C(=S)Nc3ccccc3)c(=O)[nH]c2cc1C (stereo not given) | active: 11.6 µM | –
CC(=O)OCC1(C)CN(c2ccccc2)N(C(=O)c2ccc(F)cc2)C1=O (stereo not given) | inconclusive [cytotoxic, single point] | –
CCOCCCNC(=O)/C(C#N)=C/c1ccc(Cl)c([N+](=O)[O-])c1 | active: 23.1 µM | –
CN(C)c1cc(C(F)(F)F)nc(-c2ccccn2)n1 | inconclusive [cytotoxic, single point] | –
COCCNC(=O)c1cccc(OC2CCN(Cc3ccc(F)c(OC)c3)CC2)c1 | – | inactive: 9.18%
COc1ccc(CC(N)c2csc(NC(=O)CCc3ccccc3)n2)cc1 (stereo not given) | inconclusive [cytotoxic, single point] | –
O=C(NCC1CCCO1)c1ccc(COc2ccc(Br)cc2)cc1 (stereo not given) | inconclusive [cytotoxic, partial curve, poor fit] | –
O=C(/C=N\O)NCCCNCc1ccccc1 | inconclusive [rising, single point] | –
Fc1ccc(OCc2nc(-c3ccncc3)n[nH]2)cc1 | – | inactive: 10.6%
COc1cccc(CSc2nc3ccncc3[nH]2)c1 | – | inactive: -27.1%
CCc1ccc(/C=C2\SC(=S)N(CCCC(=O)N(CCO)c3ccccc3)C2=O)cc1 | inconclusive [cytotoxic, single point] | –
Cc1ccccc1NC(=O)COC(=O)c1ccc(S(C)(=O)=O)c([N+](=O)[O-])c1 | inconclusive [cytotoxic, partial curve] | –
O=C(NNC(=O)c1ccccc1O)c1ccc(Cl)c(S(=O)(=O)N2CCc3ccccc32)c1 | inconclusive [cytotoxic, partial curve, poor fit] | –
NS(=O)(=O)c1ccc(NC(=O)COC(=O)Cc2c[nH]c3ccccc23)cc1 | – | inconclusive: -31.1% [cytotoxic]
CCN(CC)C1=NC=CC(c2ccccc2)=CC1C (stereo not given) | – | inactive: 1.54%
O=C(Nc1ccccc1Oc1cccnc1)C1CCCN(Cc2ccc(F)cc2)C1 (stereo not given) | inconclusive [cytotoxic, single point] | –
O=C(Nc1cccc(Cl)c1)OCCOCCOC(=O)Nc1cccc(Cl)c1 | inconclusive [cytotoxic, full curve, poor fit] | –
CCOc1cc(CNCCO)cc(Br)c1OCc1ccccc1 | active: 20.6 µM | –
Cc1ccc(-c2noc(CSc3nnc(-c4ccncc4)n3-c3ccc(C)cc3)n2)cc1 | – | inactive: -23.6%
Cc1c(N/C(=N/S(=O)(=O)c2cc([N+](=O)[O-])ccc2Cl)c2ccccc2)c(=O)n(-c2ccccc2)n1C | – | inactive: 9.56%
CCCCCCC(=O)N(O)C1CC(=O)N(Cc2ccccc2)C1=O (stereo not given) | inconclusive [cytotoxic, full curve, poor fit] | –

Compound | Potency | activity, negative = less viability
COC(=O)c1ccc(OCC(O)CN2CCN(CC(O)COc3ccc(C(=O)OC)cc3)CC2)cc1 (stereo not given) | – | inactive: -5.83%
Nc1ccc(Nc2nc(-c3ccncc3)cs2)cc1 | inconclusive [cytotoxic, single point] | –
O=C(NC(NC(=S)Nc1cccc(Cl)c1)C(Cl)(Cl)Cl)OCc1ccccc1 (stereo not given) | inconclusive [cytotoxic, single point] | –
COc1ccc(CCNC(=O)c2cc3c(=O)n(C)c4ccccc4c3n2C)c(OC)c1 | inconclusive [rising, single point] | –
Cc1cccc(N(C)C(=O)c2cc3c(=O)[nH]c4ccc(C)cc4c3s2)c1 | inconclusive [cytotoxic, full curve] | –
COc1cc(CNC(=O)Nc2nc(C(N)Cc3ccc(C(F)(F)F)cc3)cs2)cc(OC)c1OC (stereo not given) | inconclusive [cytotoxic, single point] | –
Oc1cccc(Nc2nc(NCC3CCCO3)c3ccccc3n2)c1 (stereo not given) | inconclusive [cytotoxic, single point] | –
COc1ccc2[nH]c3c(=O)n(Cc4ccc(C(=O)N5CCCCCC5)cc4)c(=S)[nH]c3c2c1 | – | inactive: -0.512%
O=C(NC(c1ccc(Cl)cc1)c1ccsc1)C1CCN(Cc2ccc(Oc3ccccc3)cc2)CC1 (stereo not given) | active: 14.6 µM | –
NC(=O)c1cc([N+](=O)[O-])ccc1NCc1ccc(O)cc1 | inconclusive [cytotoxic, full curve, poor fit] | –
Cc1ccc(Sc2c(CO)c(-c3ccccc3)nn2C)cc1 | active: 0.731 µM | –
O=c1/c(=C\c2cccn2-c2ccccc2)sc2nc3ccccc3n12 | inconclusive [rising, partial curve] | –
O=C(CCn1c(=O)[nH]c2ccsc2c1=O)NCCc1ccc(Cl)cc1 | inconclusive [cytotoxic, single point] | –
Fc1ccc2c(c1)C1C=CCC1C(c1cc3c(cc1Br)OCO3)N2 (stereo not given) | inconclusive [cytotoxic, single point] | –
CCOC(=O)N1C2c3ccccc3C(c3ccccc32)N1C(=O)OCC | – | inactive: -2.99%
CC(CC(=O)Nc1ccc2c(c1)c(=O)n(C)n2Cc1ccc(F)cc1)c1ccccc1 (stereo not given) | inconclusive [cytotoxic, single point] | –
COc1cc(OC)cc(C(=O)NCC(=O)Nc2ccc(-c3ccccc3)cc2)c1 | active: 2.91 µM | –
CCOCCCN(C)C1CCN(C(=O)c2oc3ccccc3c2NC(=O)Cc2ccc([N+](=O)[O-])cc2)CC1 | inconclusive [cytotoxic, single point] | –
CCCN1C(=O)c2ccccc2NC1c1ccc(OC)c(CSc2ccccn2)c1 (stereo not given) | inconclusive [cytotoxic, single point] | –
O=S(=O)(NC1c2cccc3cccc(c23)C1N1CCNCC1)c1ccccc1 (stereo not given) | inconclusive [cytotoxic, partial curve] | –
CC(C)N1CCC(N2CCN(Cc3ccc(-c4ccccc4Cl)o3)CC2CCO)CC1 (stereo not given) | inconclusive [cytotoxic, partial curve] | –
Cn1c(Cn2nnc3ccccc32)nnc1SCC(=O)c1ccc(F)cc1 | inconclusive [cytotoxic, single point] | –
